# Data taken from the supplement of paper PMC12217912.
# Some of the results follow. Sequences were assembled here from the parent chain. Values near 0.05 are background.
# B1: TEV protease; numbered along this chain (parent)
# chain: MGESLFKGPRDYNPISSSICHLTNESDGHTTSLYGIGFGPFIITNKHLFRRNNGTLVVQSLHGVFKVKDTTTLQQHLVDGRDMIIIRMPKDFPPFPQKLKFREPQREERICLVTTNFQTKSMSSMVSDTSCTFPSGDGIFWKHWIQTKDGQCGSPLVSTRDGFIVGIHSASNFTNTNNYFTSVPKNFMELLTNQEAQQWVSGWRLNADSVLWGGHKVFMVKPEEPFQPVKEATQL
# Variants of: B1
# Experiment: raw area under fraction-flipped curve 0-4 h after induction (AUC4h, not background-subtracted), DNA-recorder readout of cleavage of the substrate (dimensionless); higher = more cleavage of the substrate by the protease variant
# Settings: temperature: 34 °C; time window: 0-4 h after rhamnose induction
# Description: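 In vivo DNA recorder in E. coli TOP10(DE3) ΔrhaA at 34 °C. Each TEVp single-site mutant (parent TEVp 0) is paired with a single-site variant of the 7-mer TEVs (canonical ENLYFQ|S). The substrate sits between flexible linkers in a Bxb1-sfGFP-TEVs-SsrA fusion, so cleavage stabilises Bxb1 and speeds flipping of a recombination array, read by NGS. The value is the raw area under the fraction-flipped curve over 0-4 h after rhamnose induction (AUC4h), with ≥20 reads per time point. It is not background-subtracted; inactive controls average about 0.047.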
# 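Also: Bxb1 expression induced with 0.2% (w/v) L-rhamnose at OD600 near 0.5, cultures sampled hourly, flipped fraction per protease–substrate barcode pair counted by paired-end Illumina sequencing.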
Variant,area with substrate EALYFQS,area with substrate ECLYFQS,area with substrate EDLYFQS,area with substrate EELYFQS,area with substrate EFLYFQS,area with substrate EGLYFQS,area with substrate EHLYFQS,area with substrate EILYFQS,area with substrate EKLYFQS,area with substrate ELLYFQS,area with substrate EMLYFQS,area with substrate EPLYFQS,area with substrate EQLYFQS,area with substrate ERLYFQS,area with substrate ESLYFQS,area with substrate ETLYFQS,area with substrate EVLYFQS,area with substrate EWLYFQS,area with substrate EYLYFQS
MGESLFKGPRDYNPISSSICHLTNESDGHTTSLYGIGFGPFIITNKHLFRRNNGTLVVQSLHGVFKVKDTTTLQQHLVDGRDMIIIRMPKDFPPFPQKLKFREPQRKERICLVTTNFQTKSMSSMVSDTSCTFPSGDGIFWKHWIQTKDGQCGSPLVSTRDGFIVGIHSASNFTNTNNYFTSVPKNFMELLTNQEAQQWVSGWRLNADSVLWGGHKVFMVKPEEPFQPVKEATQL [E107K],0.112,0.0941,0.141,0.118,0.124,0.0856,0.102,0.0977,0.106,0.0772,0.11,0.106,0.151,0.0951,0.113,0.114,0.115,,
MGESLFKGPRDYNPISSSICHLTNESDGHTTSLYGIGFGPFIITNKHLFRRNNGTLVVQSLHGVFKVKDTTTLQQHLVDGRDMIIIRMPKDFPPFPQKLKFREPQRSERICLVTTNFQTKSMSSMVSDTSCTFPSGDGIFWKHWIQTKDGQCGSPLVSTRDGFIVGIHSASNFTNTNNYFTSVPKNFMELLTNQEAQQWVSGWRLNADSVLWGGHKVFMVKPEEPFQPVKEATQL [E107S],0.117,0.106,0.0984,0.0876,,,0.104,0.0854,0.0994,0.108,,0.105,0.116,0.147,0.119,0.122,0.0923,0.084,0.107
MGESLFKGPRDYNPISSSICHLTNESDGHTTSLYGIGFGPFIITNKHLFRRNNGTLVVQSLHGVFKVKDTTTLQQHLVDGRDMIIIRMPKDFPPFPQKLKFQEPQREERICLVTTNFQTKSMSSMVSDTSCTFPSGDGIFWKHWIQTKDGQCGSPLVSTRDGFIVGIHSASNFTNTNNYFTSVPKNFMELLTNQEAQQWVSGWRLNADSVLWGGHKVFMVKPEEPFQPVKEATQL [R102Q],0.0508,0.0591,0.0659,,,,0.0635,0.0441,,,,0.0689,0.0399,0.0491,0.0695,,,,0.0532
MGESLFKGPRDYNPISSSICHLTNESDGHTTSLYGIGFGPFIITNKHLFRRNNGTLVVQSLHGVFKVKDTTTLQQHLVDGRDMIIIRMPKDFPPFPQKLKFWEPQREERICLVTTNFQTKSMSSMVSDTSCTFPSGDGIFWKHWIQTKDGQCGSPLVSTRDGFIVGIHSASNFTNTNNYFTSVPKNFMELLTNQEAQQWVSGWRLNADSVLWGGHKVFMVKPEEPFQPVKEATQL [R102W],0.0427,,0.0409,0.0342,0.0498,0.0376,0.0553,0.0483,0.0263,,0.0598,0.0608,0.0501,0.0593,0.0578,0.0425,0.0559,,
MGESLFKGPRDYNPISSSICHLTNESDGHTTSLYGIGFGPFIITNKHLFRRNNGTLVVQSLHGVFKVKDTTTLQQHLVDGRDMIIIRMPKDFPPFPQKLKFRWPQREERICLVTTNFQTKSMSSMVSDTSCTFPSGDGIFWKHWIQTKDGQCGSPLVSTRDGFIVGIHSASNFTNTNNYFTSVPKNFMELLTNQEAQQWVSGWRLNADSVLWGGHKVFMVKPEEPFQPVKEATQL [E103W],0.081,0.085,0.0908,0.0851,0.0582,0.0754,0.0543,0.0731,0.0835,0.0963,0.0907,,0.0922,0.0785,0.0762,,0.0602,0.074,
MGESLFKGPRDYNPISSSICHLTNESDGHTTSLYGIGFGPFIITNKHLFRRNNGTLVVQSLHGVFKVKDTTTLQQHLVDGRDMIIIRMPKDFPPFPQKLKFREPQHEERICLVTTNFQTKSMSSMVSDTSCTFPSGDGIFWKHWIQTKDGQCGSPLVSTRDGFIVGIHSASNFTNTNNYFTSVPKNFMELLTNQEAQQWVSGWRLNADSVLWGGHKVFMVKPEEPFQPVKEATQL [R106H],0.11,0.0938,0.11,0.119,,0.0772,0.0965,0.0862,0.143,0.0914,0.0849,,0.117,0.108,0.0776,0.106,0.0904,0.11,0.099
MGESLFKGPRDYNPISSSICHLTNESDGHTTSLYGIGFGPFIITNKHLFRRNNGTLVVQSLHGVFKVKDTTTLQQHLVDGRDMIIIRMPKDFPPFPQKLKFREPQWEERICLVTTNFQTKSMSSMVSDTSCTFPSGDGIFWKHWIQTKDGQCGSPLVSTRDGFIVGIHSASNFTNTNNYFTSVPKNFMELLTNQEAQQWVSGWRLNADSVLWGGHKVFMVKPEEPFQPVKEATQL [R106W],0.127,0.0996,0.116,0.136,,0.075,0.114,0.0857,0.0851,0.0857,0.114,0.13,0.107,0.103,0.0894,0.0983,0.0936,0.0922,0.0897
MGESLFKGPRDYNPISSSICHLTNESDGHTTSLYGIGFGPFIITNKHLFRRNNGTLVVQSLHGVFKVKDTTTLQQHLVDGRDMIIIRMPKDFPPFPQKLKFREPAREERICLVTTNFQTKSMSSMVSDTSCTFPSGDGIFWKHWIQTKDGQCGSPLVSTRDGFIVGIHSASNFTNTNNYFTSVPKNFMELLTNQEAQQWVSGWRLNADSVLWGGHKVFMVKPEEPFQPVKEATQL [Q105A],0.0846,0.108,0.119,0.115,0.13,,,0.0936,0.088,0.0449,0.133,0,0.11,0.104,0.101,,0.0777,,0.119
MGESLFKGPRDYNPISSSICHLTNESDGHTTSLYGIGFGPFIITNKHLFRRNNGTLVVQSLHGVFKVKDTTTLQQHLVDGRDMIIIRMPKDFPPFPQKLKFREPGREERICLVTTNFQTKSMSSMVSDTSCTFPSGDGIFWKHWIQTKDGQCGSPLVSTRDGFIVGIHSASNFTNTNNYFTSVPKNFMELLTNQEAQQWVSGWRLNADSVLWGGHKVFMVKPEEPFQPVKEATQL [Q105G],0.0959,0.0919,,0.0952,0.0984,0.108,,0.0875,0.097,,0.11,0.0825,0.129,0.102,0.095,,0.0795,,
